Data reported in the supplement of paper PMC8728848.
Some of the results follow.

Tests used:
Assay in all cases: glycan array binding signal (z-score within array); higher = stronger binding
Settings in all cases: glycan notation: IUPAC condensed, linker removed
[1] = molecular target: Neu5Ac(a2-3)Gal(b1-4)[Fuc(a1-3)]GlcNAc(b1-3)Gal(b1-4)[Fuc(a1-3)]GlcNAc(b1-3)Gal(b1-4)[Fuc(a1-3)]GlcNAc
Procedure, shortened: (§1)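 Columns mapping to the same glycan were averaged after glycan names were converted to IUPAC-condensed notation. The data come from 3228 arrays in the Consortium for Functional Glycomics database, limited to those with an available protein sequence. Binding is reported as a within-array Z-score averaged across arrays of one protein sequence and across linkers.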

[2] = molecular target: Neu5Ac(a2-3)Gal(b1-4)[Fuc(a1-3)]GlcNAc(b1-3)GalNAc
Procedure, shortened: as §1

[3] = molecular target: Neu5Ac(a2-3)Gal(b1-4)[Fuc(a1-3)]GlcNAc(b1-6)[Gal(b1-3)]GalNAc
Procedure, shortened: as §1

[4] = molecular target: Neu5Ac(a2-3)Gal(b1-4)[Fuc(a1-3)]GlcNAc(b1-6)[Neu5Ac(a2-3)Gal(b1-3)]GalNAc
Procedure, shortened: as §1

[5] = molecular target: Neu5Ac(a2-3)Gal(b1-4)[Fuc(a1-3)]GlcNAc6S
Procedure, shortened: as §1

[6] = molecular target: Neu5Ac(a2-3)Gal6S(b1-4)GlcNAc
Procedure, shortened: as §1

[7] = molecular target: Neu5Ac(a2-3)Gal6S(b1-4)[Fuc(a1-3)]GlcNAc
Procedure, shortened: as §1

Neu5Ac(a2-3)GalNAc = molecular target: Neu5Ac(a2-3)GalNAc
Procedure, shortened: as §1

[8] = molecular target: Neu5Ac(a2-3)GalNAc(b1-4)GlcNAc
Procedure, shortened: as §1

[9] = molecular target: Neu5Ac(a2-3)[GalNAc(b1-4)]Gal(b1-4)Glc
Procedure, shortened: as §1

[10] = molecular target: Neu5Ac(a2-3)[GalNAc(b1-4)]Gal(b1-4)GlcNAc
Procedure, shortened: as §1

[11] = molecular target: Neu5Ac(a2-3)[GalNAc(b1-4)]Gal(b1-4)GlcNAc(b1-3)GalNAc
Procedure, shortened: as §1

[12] = molecular target: Neu5Ac(a2-3)[Neu5Ac(a2-6)]GalNAc
Procedure, shortened: as §1

Neu5Ac(a2-6)Gal = molecular target: Neu5Ac(a2-6)Gal
Procedure, shortened: as §1

[13] = molecular target: Neu5Ac(a2-6)Gal(b1-3)GlcNAc(b1-3)[Gal(b1-4)GlcNAc(b1-6)]Gal(b1-4)Glc
Procedure, shortened: as §1

Neu5Ac(a2-6)Gal(b1-4)Glc = molecular target: Neu5Ac(a2-6)Gal(b1-4)Glc
Procedure, shortened: as §1

[14] = molecular target: Neu5Ac(a2-6)Gal(b1-4)GlcNAc
Procedure, shortened: as §1

[15] = molecular target: Neu5Ac(a2-6)Gal(b1-4)GlcNAc(b1-2)Man
Procedure, shortened: as §1

[16] = molecular target: Neu5Ac(a2-6)Gal(b1-4)GlcNAc(b1-2)Man(a1-3)Man(b1-4)GlcNAc(b1-4)GlcNAc
Procedure, shortened: as §1

[17] = molecular target: Neu5Ac(a2-6)Gal(b1-4)GlcNAc(b1-2)Man(a1-3)[Gal(b1-4)GlcNAc(b1-2)Man(a1-6)]Man(b1-4)GlcNAc(b1-4)GlcNAc
Procedure, shortened: as §1

[18] = molecular target: Neu5Ac(a2-6)Gal(b1-4)GlcNAc(b1-2)Man(a1-3)[GlcNAc(b1-2)Man(a1-6)]Man(b1-4)GlcNAc(b1-4)GlcNAc
Procedure, shortened: as §1

[19] = molecular target: Neu5Ac(a2-6)Gal(b1-4)GlcNAc(b1-2)Man(a1-3)[GlcNAc(b1-2)Man(b1-4)GlcNAc(b1-2)Man(a1-6)]Man(b1-4)GlcNAc(b1-4)GlcNAc
Procedure, shortened: as §1

[20] = molecular target: Neu5Ac(a2-6)Gal(b1-4)GlcNAc(b1-2)Man(a1-3)[GlcNAc(b1-4)][Neu5Ac(a2-6)Gal(b1-4)GlcNAc(b1-2)Man(a1-6)]Man(b1-4)GlcNAc(b1-4)GlcNAc
Procedure, shortened: as §1

[21] = molecular target: Neu5Ac(a2-6)Gal(b1-4)GlcNAc(b1-2)Man(a1-3)[Man(a1-6)]Man(b1-4)GlcNAc(b1-4)GlcNAc
Procedure, shortened: as §1

[22] = molecular target: Neu5Ac(a2-6)Gal(b1-4)GlcNAc(b1-2)Man(a1-3)[Neu5Ac(a2-3)Gal(b1-4)GlcNAc(b1-2)Man(a1-6)]Man(b1-4)GlcNAc(b1-4)GlcNAc
Procedure, shortened: as §1

[23] = molecular target: Neu5Ac(a2-6)Gal(b1-4)GlcNAc(b1-2)Man(a1-3)[Neu5Ac(a2-6)Gal(b1-4)GlcNAc(b1-2)Man(a1-6)]Man(b1-4)GlcNAc(b1-4)GlcNAc
Procedure, shortened: as §1

[24] = molecular target: Neu5Ac(a2-6)Gal(b1-4)GlcNAc(b1-2)Man(a1-3)[Neu5Ac(a2-6)Gal(b1-4)GlcNAc(b1-2)Man(a1-6)]Man(b1-4)GlcNAc(b1-4)[Fuc(a1-6)]GlcNAc
Procedure, shortened: as §1

[25] = molecular target: Neu5Ac(a2-6)Gal(b1-4)GlcNAc(b1-2)Man(a1-6)Man(b1-4)GlcNAc(b1-4)GlcNAc
Procedure, shortened: as §1

[26] = molecular target: Neu5Ac(a2-6)Gal(b1-4)GlcNAc(b1-2)Man(a1-6)[Gal(b1-4)GlcNAc(b1-2)Man(a1-3)]Man(b1-4)GlcNAc(b1-4)GlcNAc
Procedure, shortened: as §1

[27] = molecular target: Neu5Ac(a2-6)Gal(b1-4)GlcNAc(b1-2)Man(a1-6)[GlcNAc(b1-2)Man(a1-3)]Man(b1-4)GlcNAc(b1-4)GlcNAc
Procedure, shortened: as §1

[28] = molecular target: Neu5Ac(a2-6)Gal(b1-4)GlcNAc(b1-2)Man(a1-6)[Man(a1-3)]Man(b1-4)GlcNAc(b1-4)GlcNAc
Procedure, shortened: as §1

[29] = molecular target: Neu5Ac(a2-6)Gal(b1-4)GlcNAc(b1-2)[Neu5Ac(a2-6)Gal(b1-4)GlcNAc(b1-4)]Man(a1-3)[GlcNAc(b1-4)][Neu5Ac(a2-6)Gal(b1-4)GlcNAc(b1-2)[Neu5Ac(a2-6)Gal(b1-4)GlcNAc(b1-6)]Man(a1-6)]Man(b1-4)GlcNAc(b1-4)GlcNAc
Procedure, shortened: as §1

[30] = molecular target: Neu5Ac(a2-6)Gal(b1-4)GlcNAc(b1-2)[Neu5Ac(a2-6)Gal(b1-4)GlcNAc(b1-4)]Man(a1-3)[GlcNAc(b1-4)][Neu5Ac(a2-6)Gal(b1-4)GlcNAc(b1-4)Man(a1-6)]Man(b1-4)GlcNAc(b1-4)GlcNAc
Procedure, shortened: as §1

[31] = molecular target: Neu5Ac(a2-6)Gal(b1-4)GlcNAc(b1-2)[Neu5Ac(a2-6)Gal(b1-4)GlcNAc(b1-6)]Man(a1-6)[Neu5Ac(a2-6)Gal(b1-4)GlcNAc(b1-2)Man(a1-3)][GlcNAc(b1-4)]Man(b1-4)GlcNAc(b1-4)GlcNAc
Procedure, shortened: as §1

[32] = molecular target: Neu5Ac(a2-6)Gal(b1-4)GlcNAc(b1-3)Gal(b1-3)GlcNAc
Procedure, shortened: as §1

[33] = molecular target: Neu5Ac(a2-6)Gal(b1-4)GlcNAc(b1-3)Gal(b1-4)GlcNAc
Procedure, shortened: as §1

[34] = molecular target: Neu5Ac(a2-6)Gal(b1-4)GlcNAc(b1-3)Gal(b1-4)GlcNAc(b1-2)Man(a1-3)[Neu5Ac(a2-6)Gal(b1-4)GlcNAc(b1-3)Gal(b1-4)GlcNAc(b1-2)Man(a1-6)]GalNAc
Procedure, shortened: as §1

[35] = molecular target: Neu5Ac(a2-6)Gal(b1-4)GlcNAc(b1-3)Gal(b1-4)GlcNAc(b1-3)Gal(b1-4)GlcNAc
Procedure, shortened: as §1

[36] = molecular target: Neu5Ac(a2-6)Gal(b1-4)GlcNAc(b1-3)Gal(b1-4)GlcNAc(b1-3)Gal(b1-4)GlcNAc(b1-2)Man(a1-3)[Neu5Ac(a2-6)Gal(b1-4)GlcNAc(b1-3)Gal(b1-4)GlcNAc(b1-3)Gal(b1-4)GlcNAc(b1-2)Man(a1-6)]GalNAc
Procedure, shortened: as §1

[37] = molecular target: Neu5Ac(a2-6)Gal(b1-4)GlcNAc(b1-3)Gal(b1-4)GlcNAc(b1-3)GalNAc
Procedure, shortened: as §1

[38] = molecular target: Neu5Ac(a2-6)Gal(b1-4)GlcNAc(b1-3)Gal(b1-4)GlcNAc(b1-3)[Neu5Ac(a2-6)Gal(b1-4)GlcNAc(b1-3)Gal(b1-4)GlcNAc(b1-6)]GalNAc
Procedure, shortened: as §1

[39] = molecular target: Neu5Ac(a2-6)Gal(b1-4)GlcNAc(b1-3)Gal(b1-4)GlcNAc(b1-6)[Gal(b1-3)]GalNAc
Procedure, shortened: as §1

B1: MGL6A (Homo sapiens) (protein)
chain: MTRTYENFQYLENKVKVQGFKNGPLPLQSLLQRLCSGPCHLLLSLGLGLLLLVIICVVGFQNSKFQRDLVTLRTDFSNFTSNTVAEIQALTSQGSSLEETIASLKAEVEGFKQERQAVHSEMLLRVQQLVQDLKKLTCQVATLNNNGEEASTEGTCCPVNWVEHQDSCYWFSHSGMSWAEAEKYCQLKNAHLVVINSREEQNFVQKYLGSAYTWMGLSDPEGAWKWVDGTDYATGFQNWKPGQPDDWQGHGLGGGEDCAHFHPDGRWNDDVCQRPYHWVCEAGLGQTSQESH
[1]
  glycan array binding signal (z-score): -0.327
[2]
  glycan array binding signal (z-score): -0.175
[3]
  glycan array binding signal (z-score): -0.237
[4]
  glycan array binding signal (z-score): -0.153
[5]
  glycan array binding signal (z-score): -0.285
[6]
  glycan array binding signal (z-score): -0.278
[7]
  glycan array binding signal (z-score): -0.235
Neu5Ac(a2-3)GalNAc
  glycan array binding signal (z-score): -0.114
[8]
  glycan array binding signal (z-score): -0.321
[9]
  glycan array binding signal (z-score): 1.54
[10]
  glycan array binding signal (z-score): 0.725
[11]
  glycan array binding signal (z-score): -0.066
[12]
  glycan array binding signal (z-score): -0.183
Neu5Ac(a2-6)Gal
  glycan array binding signal (z-score): -0.197
[13]
  glycan array binding signal (z-score): -0.259
Neu5Ac(a2-6)Gal(b1-4)Glc
  glycan array binding signal (z-score): -0.298
[14]
  glycan array binding signal (z-score): -0.252
[15]
  glycan array binding signal (z-score): -0.302
[16]
  glycan array binding signal (z-score): -0.108
[17]
  glycan array binding signal (z-score): -0.16
[18]
  glycan array binding signal (z-score): -0.22
[19]
  glycan array binding signal (z-score): -0.218
[20]
  glycan array binding signal (z-score): -0.257
[21]
  glycan array binding signal (z-score): -0.276
[22]
  glycan array binding signal (z-score): -0.259
[23]
  glycan array binding signal (z-score): -0.271
[24]
  glycan array binding signal (z-score): -0.247
[25]
  glycan array binding signal (z-score): -0.268
[26]
  glycan array binding signal (z-score): -0.254
[27]
  glycan array binding signal (z-score): -0.175
[28]
  glycan array binding signal (z-score): -0.19
[29]
  glycan array binding signal (z-score): -0.775
[30]
  glycan array binding signal (z-score): -0.845
[31]
  glycan array binding signal (z-score): -0.241
[32]
  glycan array binding signal (z-score): -0.196
[33]
  glycan array binding signal (z-score): -0.225
[34]
  glycan array binding signal (z-score): -0.183
[35]
  glycan array binding signal (z-score): -0.175
[36]
  glycan array binding signal (z-score): -0.152
[37]
  glycan array binding signal (z-score): -0.891
[38]
  glycan array binding signal (z-score): -0.22
[39]
  glycan array binding signal (z-score): -0.252
